Measurements: article PMC9911399, “Two distinct binding modes provide the RNA-binding protein RbFox with extraordinary sequence specificity”
Substitutions are numbered along the chain they refer to; changes in the protein carry UniProt numbers. The list shows a part of the results.

B1: CCACGAA (DNA:RNA)
RNA: GGGAGACCGGAAUUCAGAUUGUCCCCACGAAUUAAAUCCCGUCGUAGCCACCA
DNA 1: CAATCTGAATTCCGGTCTCCC
DNA 2: TGGTGGCTACGACGGGATT
B2: CUUUUUC (DNA:RNA)
RNA: B1 RNA with C26U, A27U, C28U, G29U, A30U, A31C
DNA 1: CAATCTGAATTCCGGTCTCCC
DNA 2: TGGTGGCTACGACGGGATT
B3: GACGGCU (DNA:RNA)
RNA: B1 RNA with C25G, C26A, A27C, C28G, A30C, A31U
DNA 1: CAATCTGAATTCCGGTCTCCC
DNA 2: TGGTGGCTACGACGGGATT
B4: GCUCUCG (DNA:RNA)
RNA: B1 RNA with C25G, A27U, G29U, A30C, A31G
DNA 1: CAATCTGAATTCCGGTCTCCC
DNA 2: TGGTGGCTACGACGGGATT
B5: GAAUACU (DNA:RNA)
RNA: B1 RNA with C25G, C26A, C28U, G29A, A30C, A31U
DNA 1: CAATCTGAATTCCGGTCTCCC
DNA 2: TGGTGGCTACGACGGGATT
B6: UGCGUCU (DNA:RNA)
RNA: GGGAGACCGGAAUUCAGAUUGUCCUGCGUCUUUAAAUCCCGUCGUAGCCACCA
DNA 1: CAATCTGAATTCCGGTCTCCC
DNA 2: TGGTGGCTACGACGGGATT
B7: CGUGGAC (DNA:RNA)
RNA: B1 RNA with C26G, A27U, C28G, A31C
DNA 1: CAATCTGAATTCCGGTCTCCC
DNA 2: TGGTGGCTACGACGGGATT
B8: GGGUCGU (DNA:RNA)
RNA: B6 RNA with U25G, C27G, G28U, U29C, C30G
DNA 1: CAATCTGAATTCCGGTCTCCC
DNA 2: TGGTGGCTACGACGGGATT
B9: GGUGAUA (DNA:RNA)
RNA: B6 RNA with U25G, C27U, U29A, C30U, U31A
DNA 1: CAATCTGAATTCCGGTCTCCC
DNA 2: TGGTGGCTACGACGGGATT
B10: UCCAAGU (DNA:RNA)
RNA: B6 RNA with G26C, G28A, U29A, C30G
DNA 1: CAATCTGAATTCCGGTCTCCC
DNA 2: TGGTGGCTACGACGGGATT
B11: UCCCCUA (DNA:RNA)
RNA: B1 RNA with C25U, A27C, G29C, A30U
DNA 1: CAATCTGAATTCCGGTCTCCC
DNA 2: TGGTGGCTACGACGGGATT
B12: CGCGCUG (DNA:RNA)
RNA: B6 RNA with U25C, U29C, C30U, U31G
DNA 1: CAATCTGAATTCCGGTCTCCC
DNA 2: TGGTGGCTACGACGGGATT
B13: UUAACAA (DNA:RNA)
RNA: B1 RNA with C25U, C26U, C28A, G29C
DNA 1: CAATCTGAATTCCGGTCTCCC
DNA 2: TGGTGGCTACGACGGGATT
B14: CGGUGCG (DNA:RNA)
RNA: B1 RNA with C26G, A27G, C28U, A30C, A31G
DNA 1: CAATCTGAATTCCGGTCTCCC
DNA 2: TGGTGGCTACGACGGGATT
B15: GGAUCGC (DNA:RNA)
RNA: B1 RNA with C25G, C26G, C28U, G29C, A30G, A31C
DNA 1: CAATCTGAATTCCGGTCTCCC
DNA 2: TGGTGGCTACGACGGGATT
B16: AUACGUA (DNA:RNA)
RNA: B1 RNA with C25A, C26U, A30U
DNA 1: CAATCTGAATTCCGGTCTCCC
DNA 2: TGGTGGCTACGACGGGATT
B17: CGCUUUU (DNA:RNA)
RNA: B6 RNA with U25C, G28U, C30U
DNA 1: CAATCTGAATTCCGGTCTCCC
DNA 2: TGGTGGCTACGACGGGATT
B18: GUGACGA (DNA:RNA)
RNA: B1 RNA with C25G, C26U, A27G, C28A, G29C, A30G
DNA 1: CAATCTGAATTCCGGTCTCCC
DNA 2: TGGTGGCTACGACGGGATT
B19: AUUCGUC (DNA:RNA)
RNA: B1 RNA with C25A, C26U, A27U, A30U, A31C
DNA 1: CAATCTGAATTCCGGTCTCCC
DNA 2: TGGTGGCTACGACGGGATT
B20: UAGACCA (DNA:RNA)
RNA: B6 RNA with G26A, C27G, G28A, U29C, U31A
DNA 1: CAATCTGAATTCCGGTCTCCC
DNA 2: TGGTGGCTACGACGGGATT

The binders below were run against T1, RBFOX1 RRM RbFoxmut (Fox-RRM*) (Homo sapiens, UniProt Q9NWB1 109-208, R118D;E147R;N151S;E152T) (assay: EMSA; HiTS-Eq, 1 nM pool, 10 min; buffer printed only for the single-RNA assays: 10 mM Tris pH 7.5, 150 mM NaCl, 3.4 mM EDTA, 0.001% NP-40, 30 C). Conditions: tags: His6 N-terminal (pET28a); label: 5' 32P.
T1 sequence: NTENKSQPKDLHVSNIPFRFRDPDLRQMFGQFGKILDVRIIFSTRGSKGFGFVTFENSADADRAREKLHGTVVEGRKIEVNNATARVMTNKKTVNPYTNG
Procedure, shortened: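 Purified wild-type or mutant RbFox RRM at increasing concentrations was equilibrated with 1 nM of 5′-radiolabelled RNA carrying 7 randomized nucleotides for 10 min in 50 µL. Unbound RNA was separated by 8% native PAGE and sequenced. Relative association constants came from read-count changes of each RNA species compared with the control reaction, normalised to the cognate motif.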

Binder | binding signal
B1 | 0.107 KA relative to UGCAUGU
B2 | 0.065 KA relative to UGCAUGU
B3 | 0.0872 KA relative to UGCAUGU
B4 | 0.0947 KA relative to UGCAUGU
B5 | 0.0832 KA relative to UGCAUGU
B6 | 0.119 KA relative to UGCAUGU
B7 | 0.0801 KA relative to UGCAUGU
B8 | 0.281 KA relative to UGCAUGU
B9 | 0.125 KA relative to UGCAUGU
B10 | 0.112 KA relative to UGCAUGU
B11 | 0.0435 KA relative to UGCAUGU
B12 | 0.104 KA relative to UGCAUGU
B13 | 0.0681 KA relative to UGCAUGU
B14 | 0.206 KA relative to UGCAUGU
B15 | 0.23 KA relative to UGCAUGU
B16 | 0.162 KA relative to UGCAUGU
B17 | 0.0868 KA relative to UGCAUGU
B18 | 0.0505 KA relative to UGCAUGU
B19 | 0.157 KA relative to UGCAUGU
B20 | 0.0422 KA relative to UGCAUGU
